Data: PMC4336329 (PLoS ONE, 2015)
Among all 310,000 compounds or so, about 14,000 (4.5%) showed an effect of 50% or more. Effects have a minus sign here. The list shows a part of the results.

Molecular target: human ether-à-go-go-related gene (hERG) potassium channel (human, UniProt Q12809)
Experiment: primary screen, population patch clamp on CHO cells stably expressing hERG
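Note: peak tail current of the secondary pulse compared with the same well before compound.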

Chain of human ether-à-go-go-related gene (hERG) potassium channel (Q12809 whole entry, looked up): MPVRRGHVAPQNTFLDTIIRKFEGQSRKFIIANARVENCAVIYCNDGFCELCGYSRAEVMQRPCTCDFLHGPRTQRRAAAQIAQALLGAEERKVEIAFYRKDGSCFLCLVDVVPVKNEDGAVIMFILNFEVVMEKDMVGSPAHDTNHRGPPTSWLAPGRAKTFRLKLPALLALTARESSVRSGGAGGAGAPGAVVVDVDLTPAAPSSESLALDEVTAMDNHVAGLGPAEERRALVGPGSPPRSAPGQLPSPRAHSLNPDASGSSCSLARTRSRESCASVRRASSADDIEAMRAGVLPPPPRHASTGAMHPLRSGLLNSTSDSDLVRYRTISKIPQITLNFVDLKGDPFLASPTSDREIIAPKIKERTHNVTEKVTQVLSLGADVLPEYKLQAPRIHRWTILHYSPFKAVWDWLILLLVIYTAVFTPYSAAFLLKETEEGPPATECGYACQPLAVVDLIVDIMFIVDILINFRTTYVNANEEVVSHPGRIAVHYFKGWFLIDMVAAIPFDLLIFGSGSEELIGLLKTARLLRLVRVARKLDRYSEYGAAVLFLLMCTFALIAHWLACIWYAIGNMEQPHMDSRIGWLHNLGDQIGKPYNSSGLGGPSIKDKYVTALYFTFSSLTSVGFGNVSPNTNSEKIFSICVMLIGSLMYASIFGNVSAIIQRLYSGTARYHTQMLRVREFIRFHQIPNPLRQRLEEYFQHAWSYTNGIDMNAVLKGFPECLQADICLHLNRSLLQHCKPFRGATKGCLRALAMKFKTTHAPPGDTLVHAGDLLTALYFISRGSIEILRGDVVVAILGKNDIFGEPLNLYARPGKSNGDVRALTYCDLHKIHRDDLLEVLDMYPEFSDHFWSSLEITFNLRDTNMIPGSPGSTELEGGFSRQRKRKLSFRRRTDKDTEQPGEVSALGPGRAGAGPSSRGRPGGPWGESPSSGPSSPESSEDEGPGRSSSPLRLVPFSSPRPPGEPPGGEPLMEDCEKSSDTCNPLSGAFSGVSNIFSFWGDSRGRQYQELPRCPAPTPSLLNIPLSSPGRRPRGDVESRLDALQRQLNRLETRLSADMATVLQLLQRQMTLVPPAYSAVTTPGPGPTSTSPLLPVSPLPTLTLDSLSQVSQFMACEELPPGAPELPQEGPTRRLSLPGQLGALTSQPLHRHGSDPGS

| SMILES | hERG current change (%, negative = inhibition) at 10uM |
| --- | --- |
| Fc1ccc(NC(=S)N2CCN(c3cccc(C(F)(F)F)c3)CC2)cc1 | 13.7% |
| CC(C)(C)OC(=O)NNC(=O)c1cccs1 | 4.42% |
| Cc1cc(C)nc(SCC(=O)Nc2nonc2N)n1 | 23.4% |
| CCOC(=O)Cc1nc(-c2ccc(Cl)cc2)n[nH]1 | 16.2% |
| COc1ccccc1N1CCN(C(=O)c2sc3nc(C)nc(N4CCN(c5ccccn5)CC4)c3c2C)CC1 | -2.2% |
| COc1ccc(S(=O)(=O)N2CCCC2CNC(=O)C(=O)NCc2ccco2)cc1 (stereo not drawn) | -3.76% |
| COc1cc(CN2CCCC(C(=O)c3sccc3C)C2)cc(Cl)c1O (stereo not drawn) | -53.8% |
| COC(=O)[C@@]1(Cc2ccc(F)cc2)[C@H]2c3cc(C(=O)N(C)C)n(Cc4ccccn4)c3C[C@H]2CN1C(=O)c1ccccc1 | -53.4% |
| O=C(Nc1cccc(F)c1)NC1CCCCC1 | 7.8% |
| CCc1ccccc1NC(=O)CNC(=O)c1cc(C2CC2)nn1-c1ccccc1 | -28.8% |
| C=CCNCCCCOc1ccccc1.O=C(O)C(=O)O | 0.6% |
| CN(C(=O)C1CCOC1)c1nnc(-c2ccccn2)s1 (stereo not drawn) | -3.49% |
| Cc1ccc(Cl)cc1N1CCN(CC(O)COC(C)C)CC1.Cl (stereo not drawn) | -63.7% |
| CCOC(=O)c1[nH]c(C)c(C(=O)OCC(=O)NC(=O)NC(C)(C)C)c1C | 21.3% |
| CC(C)Cc1cc(C(C)(C)C)ccc1OC(=S)N(C)C | 10.2% |
| CCCCc1c(O)nc2sccn2c1=O | -2% |
| CN1CCN(Cc2cn(C)nc2-c2ccccc2F)CC1c1ccccc1 (stereo not drawn) | 3.76% |
| O=P1(NCCCl)OCCCN1CCCl (stereo not drawn) | 8.5% |
| N#Cc1ccc(C2=NC(C(F)(F)F)(C(F)(F)F)c3c(n(Cc4ccco4)c(=O)[nH]c3=O)N2)cc1 | 3.82% |
| COc1ccc(CNC(=O)COC(=O)c2ccc3c(c2)OCCO3)cc1 | 14.8% |
| O=C(Nc1cccc2c1CCCC2)c1ccco1 | -7.45% |
| CC(C(=O)NCCc1ccc(F)cc1)N1CCN(Cc2ccccc2)CC1 (stereo not drawn) | -5.88% |
| O=[N+]([O-])c1ccc2[nH]c3c(c2c1)CCCC3O (stereo not drawn) | 5.53% |

| SMILES | hERG current change (%, negative = inhibition) at 10uM |
| --- | --- |
| C[n+]1c(-c2ccccc2)cc(CCCCc2cc(-c3ccccc3)[n+](C)c(-c3ccccc3)c2)cc1-c1ccccc1.[O-][Cl+3]([O-])([O-])[O-] | -30.6% |
| O=C(NCCN1CCOCC1)C1CCC(=O)N1Cc1ccccc1Cl (stereo not drawn) | 1.21% |
| CCOC(=O)N[C@H](Cc1c[nH]c2ccccc12)C(=O)NC1CC1 | 3.42% |
| Cn1[nH]c(-c2ccccc2)c(/C=N/O)c1=O | -15.1% |
| O=S(=O)(c1ccccc1)c1nc(-c2ccco2)oc1NCc1cccnc1 | -20.1% |
| CC(C)(O)c1[nH]c2cc(F)ccc2c1C(C)(C)O | 7.32% |
| CC(=O)NC(CC(=O)OCC(=O)N1CCN(S(=O)(=O)c2ccc(Cl)cc2)CC1)c1ccccc1 (stereo not drawn) | -9.51% |
| CCOC(=O)c1c(C)[nH]c(C)c1C(=O)COC(=O)c1cccc(C)c1O | -2.67% |
| CCOc1ccccc1C(=O)Nc1ccc2c(c1)C(=O)NC2=O | 18.4% |
| CN(CC(=O)Nc1ccccc1Br)c1ncnc2sccc12 | -0.69% |
| Cc1nc(SCC(=O)Nc2cc(S(=O)(=O)N3CCOCC3)ccc2Cl)nc(C)c1C | -48.1% |
| Cc1c(CN(C)C)c2c(n1C)C(=O)c1ccc(Br)cc1-2.Cl | -37.3% |
| O=[N+]([O-])c1cc(O)c(O)c([N+](=O)[O-])c1 | -6.65% |
| CCOC(=O)C1(CCOc2ccccc2)CCN(Cc2ccc(CO)o2)CC1 | -73.8% |
| CCOC(=S)SCC(=O)N1CCc2ccccc2C1C1C(=O)CC(C)(C)CC1=O (stereo not drawn) | 4.98% |
| CCC(Cc1ccccc1)NCc1c(C(=O)O)c(C)n(Cc2ccccc2)c1C (stereo not drawn) | 30.4% |
| CC1CCCCC1NC(=O)CNC(=O)c1cccs1 (stereo not drawn) | 4.7% |
| Cc1nn(CC(=O)NCC2CCCO2)c(=O)c2cc3ccccc3n12 (stereo not drawn) | 15.2% |
| CC(C)(C)C(=O)NC1CCN(CC(=O)Nc2ccc3c(c2)OCO3)CC1 | 15.8% |
| Cc1ccc(-n2[nH]c(C)c(C=Nc3ccc(S(=O)(=O)Nc4nccs4)cc3)c2=O)c(C)c1 | -35% |
| CCOC(=O)C1CCN(/C=C2/C(=O)NC(=S)N(c3ccccc3F)C2=O)CC1 | 3.35% |
| O=C(O)C1CCN(C(=O)CSc2nc3cc(Cl)ccc3c(=O)n2Cc2ccccc2)CC1 | 2.54% |
